# Measurements from the supplement of paper PMC11417369.
# The list shows a part of the results.
# System: PF3D7_0420300 AP2 domain 1 (GST-tagged)
# Assay: gcPBM binding intensity (ln(normalized median fluorescence intensity)); higher = stronger DNA binding
# Procedure, shortened: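 GST-fused DNA-binding domains of P. falciparum, expressed in E. coli, were applied at about 25 μg on average for 1 h to an Agilent 4 × 180k array of primer-extended double-stranded 36-bp intergenic genomic probes and negative controls. Binding intensity is the highest Masliner-normalised natural-log median intensity across replicate spots of either probe orientation, measured with Alexa488 anti-GST antibody and a 488 nm scan.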
row,Sequence,gcPBM binding intensity (ln)
1,ATACGTATTTTCTTTTGTACATATATATAAAATATT [XGTACX_site2675],9.42
2,TATATTTATTAGTTTCGTACGTACAAAGTTATTTTT [XGTACX_site8847],9.27
3,AATATTGCACCATTTTGTACATAATATATTCAAATA [XGTACX_site475],9.34
4,TATTTTAATATTTGTAGTACAGATTGAAATGACGAA [XGTACX_site4805],9.15
5,ATATACGCATTAATAACACACAATATGATAACAAAT [CACACA_site3623],9.75
6,AAAATGTATGGAATGCTCTTTTTTAAGTATTATATA [GTGCAC_negctrl_site175],9.19
7,GTGGGAAACATAAACACACACAAAAAGAAAAAATAG [CACACA_site4810],9.95
8,TACATACATACATACACACACACATATAAATACATA [CACACA_site4626],10.2
9,TCTCTAACTTTTAATACACACAAATAAATAAATAAA [CACACA_site6245],9.29
10,GTTTTATTTATTTCATGTACACAAAAAAGGTTTTAA [XGTACX_site6525],9.22
11,AAAATAAAATAATAAAATAAAATAATAATAAAATAA [TGCATGCA_negctrl_site401],9.41
12,AATACATATATATATTGTACATATAGGGAAAAATTA [XGTACX_site2275],9.27
13,TGGTATCAAAAGAATACACACACACCGACATATATA [CACACA_site9265],10
14,GAATATAAACATATTACACACATCTATCTGTACATT [CACACA_site5114],9.72
15,AAAAAAAAAAAATGTGCATGCTATATATATATATAT [TGCATGCA_site727],9.18
16,TTAACAAATAGACACACACACACACGCAAAAAAAAA [CACACA_site6387],10.2
17,ATATATATATTTACATGTACACATCTATATATAAAC [XGTACX_site5581],9.36
18,TTTTTTTTTCATTATTGTACATTGAAACTTCATTTT [XGTACX_site6041],9.18
19,AAAAAAAACGAACACACACACAAATATGTAAAAATA [CACACA_site6673],10.1
20,CACACAATGGCTAGCTGTACATAATATATATCTACA [XGTACX_site4691],9.32
21,TAAAAACAAAAATGTTGTACATAATATAAAACAATT [XGTACX_site6380],9.3
22,TATATAAATATACAAACACACATACAAACATATATA [CACACA_site4754],9.9
23,GAAAATAAAATAAATGCATGTAAATTTAATGTAATG [TGCATGCA_site996],9.4

row,Sequence,gcPBM binding intensity (ln)
1,ATATATATATCATATTGTACATACTTGTATTTATAT [XGTACX_site2432],9.35
2,GTGGACGAAATAGTTGTAAATTTATGTGCAAACCTC [XGTACX_negctrl_site564],9.28
3,TCCTTACCTATTAAAGCATGCTCGAATATATATTTT [TGCATGCA_site53],9.36
4,TATATTAAATATTACACACATACATTTAGTGTCAAA [CACACA_site1990],9.35
5,TGGGAGCACAGACACACACACACACCGATATATATA [CACACA_site8001],10.2
6,AACAAAATAAATGTATGTACATATATATATATATAT [XGTACX_site7974],9.29
7,AATGAATATAGTACTGAATGTAATTTAAGGTTTTCC [CACACA_negctrl_site1548],9.28
8,GCATAAATCAAACACACACACATATATATATATATA [CACACA_site2422],9.78
9,TATAATGGATGCTAGCTGCACTAATAAGCAAAAATA,9.12
10,GATGATATATATTAGCGTACATGTATATATACCATT [XGTACX_site6404],9.32
11,AAAATTTCAAATAACACACACTAATATATATCTGTA [CACACA_site4904],9.66
12,TAAATGAGAAGGACTGCACACTAAAATGGAAGGAGA [CACACA_site8449],9.71
13,TATTTGTATATATGTGTGCACGTATAATCCATTAAA [GTGCAC_site9569],9.32
14,TATGGTAACATATGCTGTACAATATAATATGTTTAA [XGTACX_site1601],9.11
15,AAAAAAAAAAGGTGTACATGCAAAATAAATTCTTAA [TGCATGCA_site556],9.43
16,AAATTATAAATACCTACACACTTATCAAAATAAATT [CACACA_site5280],9.56
17,TAAACATAAATATACACACAAACATATATGTATTTT [CACACA_site1214],9.73
18,AATATTTTTTTATAAACACACATATATATAAATATA [CACACA_site3524],9.17
19,TATATAAATATAATATGTACATATAATATGTATATA [XGTACX_site8120],9.04
20,TAATAATTTATATATGCATGTCAAAATAATATTAAA [TGCATGCA_site12],9.09
21,TATATATTTTTATGTGTGCACTGTTTCATAAAAGAA,9.2
22,ACTTATAAAATAACATGTACAAATATTTATTATATA [XGTACX_site133],9.05
23,AAAATAACGAGTCAAACACACATATTTATATTTATA [CACACA_site7050],9.49

row,Sequence,gcPBM binding intensity (ln)
1,TAATATAACTACATAACACACGAAAATATATGAATC [CACACA_site3628],9.96
2,GTTATAAATGCATATACACACATACGTACATACATA [CACACA_site7655],9.69
3,TCATTAATCAGGTATGCATGCATAACTATTAAAAAT [TGCATGCA_site90],9.02
4,TCTTTTTTTTTTATTTGTACTTATTTTTTTCAAAAA [XGTACX_site3403],9.21
5,TTATATGAAAAAATATGTACGTATAATGAGAAATAT [XGTACX_site8987],9.56
6,AAATAGATAAACTAAACACACAAAAAAAAAAAAAAT [CACACA_site1179],9.84
7,AGAAAAAATAAAAATAGTACTCAAAAAATTATGAAT [XGTACX_site4908],9.33
8,AATGGTACATGATACACACACGCACATATATATATT [CACACA_site3425],9.89
9,ATGTAGATATATATATGTACTAATTAGTAGTTTACG [XGTACX_site6275],9.33
10,ACATAAATAATAAAAACACACATATGTACAGATATA [CACACA_site5112],9.81
11,AGAAAAAAAAAACACACACACACACCCTCAATATAA [CACACA_site39],10.1
12,ATATTAAAAAGAAGTGTGCGCAAAACATTAACTTGA,9.64
13,ATTTATATATTGCCCACACACATGTGATTATTTATA [CACACA_site1714],9.81
14,AATGGATGGTCCAAATGTACATATATATATATATAT [XGTACX_site4800],9.21
15,TAAATAAACCTGACTTGTACATGTAAAATAAATATA [XGTACX_site1667],9.4
16,AATAATAATATATGTAGTACACATTTCCATTATGTT [XGTACX_site3708],9.37
17,AAAAAAAAAAAAAAAACACACATTTCTTTTTCATAT [CACACA_site11],9.38
18,TTAATTATATATAAAAGTACTTATTTTTCCATATAA [XGTACX_site3033],8.8
19,TAATAGGAAATTATAGGTACACATACAAATAAATAA [XGTACX_site3587],9.43
20,TTGCAAATATATGGTTGTACTCAAAAAAAAAAAAAA [XGTACX_site6975],8.87
21,TTTGTAGATTTTGTAACACACACATATATATACATA [CACACA_site8757],9.63
22,TATGCACCCAGACACACACACACAACTAAAAAATAA [CACACA_site2567],9.96
23,TACCATTATTTTAAGTGTACATACTAATTTATATAT [XGTACX_site6548],9.34

row,Sequence,gcPBM binding intensity (ln)
1,AAAATATAATATATTGCACACAAAAAGTGAATTATT [CACACA_site8489],9.47
2,TCTTTCTATTTATAATGTACTCAAAATTATTCTATA [XGTACX_site4867],9.01
3,AAATTGTGTGAAATATATTAATATTATTATTATTAT [TGCATGCA_negctrl_site189],9.19
4,CCTTGCATTTATTATACACACACAAAAAAATATATA [CACACA_site7964],9.68
5,TTTTACCACTAAAAATGTACAAAAAAAAAAAAAAAA [XGTACX_site4226],8.59
6,ATGCGTATACTAAGAACACACAAGTTACTTGGTGTT [CACACA_site1625],9.26
7,ATTAATGATTTTTGTTGTACATTATTAATTTACATT [XGTACX_site544],9.47
8,CATACATACATACATACACACATACATATGTATTTA [CACACA_site5384],9.64
9,TATTTTATATTTCATTTGTTATTTTTCTTGGTTCTA [CACACA_negctrl_site33],9.49
10,CAACACTTTCAAAAATGTACGTACAAATGTATTTTA [XGTACX_site6713],8.98
11,ACAAAATAAAGACACACACACAAACACAAAAAAATA [CACACA_site7568],10.2
12,AGTTTCCATATGAGGTGTACATATATAATTTATTAT [XGTACX_site2369],9.44
13,CAAAAATAACGAGTCAAACACACATATATATATATA [CACACA_site2038],9.41
14,AAAGGGATAACACCAAAAAAAATAAAAATAAAAATA [GTGCAC_negctrl_site680],9.24
15,TCAAGAATTTTAAAGAGTACATAAAACAATAATATA [XGTACX_site3923],9.18
16,AATGTAATATAAATATGTACATATAAACTATATATA [XGTACX_site6871],9.35
17,ATTATATATATATATATATATATATATATATTATAT [CACACA_negctrl_site234],8.89
18,ACTTATGATTTATTTTGTACATATATACTATTCCTG [XGTACX_site5275],9.65
19,GTTTTAAAACAAATATGTACACATAATATAGGAAAG [XGTACX_site1803],9.23
20,GCTCCTTTTACCATCGCACACGATAAAAAAAAATAA [CACACA_site3255],9.35
